According to ChEMBL document CHEMBL4888484, “Replenishing the malaria drug discovery pipeline: Screening and hit evaluation of the MMV Hit Generation Library 1 (HGL1) against asexual blood stage Plasmodium falciparum ,using a nano luciferase reporter read-out” (2022):
About 410 (8.5%) of roughly 4,800 compounds showed an effect of 50% or more. Some of the results follow.

These compounds were tested on Plasmodium falciparum (assay: Confirmatory screen in NF54 pLDH assay, in single point, at 2uM, 72h). Settings: timepoint 72 hour.
Format: functional, Erythrocyte
`COc1ccc(C(=O)Nc2c(C)nc3ncnn3c2O)cc1` was tested, and the “% Inhibition” value was 8%.
In the case of `Cc1c(C2CC2)n[nH]c1NC(=O)C1CC1c1ccccc1` (stereo not drawn), the “% Inhibition” value was 12%.
`CCCCNC(=O)Cc1noc([C@@H]2Cc3ccccc3O2)n1` was tested, and the “% Inhibition” value was -6%.
`O=C(c1ccc2c(c1)OCCCO2)N1CCCCC1` was tested, and the “% Inhibition” value was -15%.
With `CC1(C)Oc2cc(S(=O)(=O)NC3CCCCC3)ccc2NC1=O` the “% Inhibition” value was -7%.
In the case of `NC(=O)C1(CNC(=O)c2cccn3c(=O)[nH]nc23)CCCC1`, the “% Inhibition” value was 0%.
`O=C(Nc1nc(Cc2ccccc2)cs1)C1CCOCC1` was tested, and the “% Inhibition” value was 10%.
In the case of `CCOC(=O)C(C)NC(=O)C(C)NC(=O)c1ccc(F)c(C#N)c1` (stereo not drawn), the “% Inhibition” value was 7%.
`COC[C@H]1CCCN1C(=O)C[C@@H]1O[C@H](CNC(=O)Nc2ccccc2)[C@@H](O)[C@H]1O` was tested, and the “% Inhibition” value was 0%.
In the case of `CC(=O)N[C@H]1CCc2nc(N)sc2C1`, the “% Inhibition” value was 13%.
With `COc1cc2c(cc1OC)CN(c1noc(-c3ccccc3)n1)CC2` the “% Inhibition” value was 1%.
In the case of `Cc1ccc2nc(-c3cc4ccccc4o3)cn2c1`, the “% Inhibition” value was 52%.
`CC[C@H](C)N1CCN(Cc2cccc(Oc3ccccc3)c2)CC1` was tested, and the “% Inhibition” value was 9%.
In the case of `COc1ccc(OCC(=O)Nc2ccc(N3CCn4c(nc5ccccc54)C3)cc2Cl)cc1`, the “% Inhibition” value was -14%.
For `CN(C)c1ccc(NC(=O)Cn2cnc3ccc(Cl)cc3c2=O)cc1`, the “% Inhibition” value was -6%.
With `CCC[C@]1(C)NC(=O)N(c2csc(-c3ccccc3)n2)C1=O` the “% Inhibition” value was 3%.
For `Fc1cccc(F)c1CNC[C@@H]1NCCc2ccccc21`, the “% Inhibition” value was 1%.
In the case of `Cc1nc(C)c(C(=O)N[C@](C)(c2ccc(Br)cc2)C(C)C)o1`, the “% Inhibition” value was -13%.
For `CC(C)CNCc1cccc(Br)c1`, the “% Inhibition” value was 14%.
In the case of `Cc1c(C(=O)NCCc2ccc(Cl)cc2)oc2ccc3c(c12)[C@@H](O)CC(C)(C)O3`, the “% Inhibition” value was 10%.
`Oc1ccccc1CCN[C@H]1CCc2ccc(F)cc21` was tested, and the “% Inhibition” value was 95%.
`CCc1nc(CNc2ccc(C)c(S(=O)(=O)NC3CC3)c2C)n[nH]1` was tested, and the “% Inhibition” value was -15%.
`Cc1ccc(CNc2ccc(S(C)(=O)=O)cc2)c(=O)n1C` was tested, and the “% Inhibition” value was -9%.
In the case of `CC(=O)N1CCc2cc(-c3ccc(C(=O)NCC[C@H](C)N4CCCC4)cc3)ccc21`, the “% Inhibition” value was 9%.
`Oc1cc2ccccc2cc1-c1nnc(-c2ccccc2)c(-c2ccccc2)n1` was tested, and the “% Inhibition” value was -11%.
For `CC(=O)c1ccc(C(C)(C)C)cc1NC(=O)C(C)C`, the “% Inhibition” value was 8%.
`Cc1cc(NC(=O)Nc2ccccc2)c2[nH]c(C(=O)NCCN3CCOCC3)c(-c3ccccc3)c2c1` was tested, and the “% Inhibition” value was 6%.
With `c1ccc(C[C@]2(c3ccccc3)CCNC2)cc1` the “% Inhibition” value was 11%.
`CC(=O)N1C[C@H]2CN(C(=O)Cc3cccc(Cl)c3)CC[C@@]2(c2nc(C)n[nH]2)C1` was tested, and the “% Inhibition” value was 6%.
With `Cc1ccc([C@@H]2c3cccn3CCCN2Cc2cccs2)cc1C` the “% Inhibition” value was 12%.
For `COc1cccc([C@H]2CC(=O)Nc3c2cnn3C)c1`, the “% Inhibition” value was -11%.
With `O=C(NCC1CCCCC1)c1cn[nH]c1-c1ccccc1` the “% Inhibition” value was 6%.
For `O=C(COC(=O)c1nccc2ccccc12)Nc1cc(F)ccc1Cl`, the “% Inhibition” value was 11%.
For `COc1cccc(Cn2c(=O)c3sccc3n(CC(=O)Nc3ccc(N(C)C)cc3)c2=O)c1`, the “% Inhibition” value was 13%.
In the case of `CC1(C)CN(C(=O)CN2CCOCC2=O)C2CCCC21` (stereo not drawn), the “% Inhibition” value was -14%.
In the case of `COc1cccc(N2CCN(C(=O)C3CCN(c4nc5cccnc5n(C)c4=O)CC3)CC2)c1`, the “% Inhibition” value was -7%.
For `Cc1ccnc2nc(C(=O)N(CC3CC3)CC(F)(F)F)nn12`, the “% Inhibition” value was 10%.
`Cc1cc(OC[C@@H](O)CNC(C)(C)CC(C)(C)C)cc(C)c1Cl` was tested, and the “% Inhibition” value was 57%.
With `Cc1ccc(S(=O)(=O)N2CCN(C(=O)CCn3cncn3)CC2)cc1` the “% Inhibition” value was -16%.
In the case of `Cc1nc2c(-c3ccco3)nc(=O)n(CC(=O)Nc3cccc4ccccc34)c2s1`, the “% Inhibition” value was -1%.
For `O=C(NCCCn1cccn1)[C@H]1CN(S(=O)(=O)c2cccnc2)CC12CCCCC2`, the “% Inhibition” value was 10%.
For `CC[C@](O)(C(=O)N(C)Cc1ncon1)c1cccc(Cl)c1`, the “% Inhibition” value was -13%.
With `Cc1cc(NCCc2nccn2C)ncn1` the “% Inhibition” value was -4%.
`Clc1ccccc1-c1c[nH]c([C@@H]2CCCN2)n1` was tested, and the “% Inhibition” value was 6%.
In the case of `COc1c(O)ccc2c(=O)c3c(O)cc(O)c(OC)c3n(C)c12`, the “% Inhibition” value was 4%.
With `CC1CCC(NC(=O)N2CCC(OC[C@H]3CCCO3)CC2)CC1` (stereo partly drawn) the “% Inhibition” value was -6%.
With `COC1CCCCC1NC(=O)c1ccc(-c2noc(C(F)(F)F)n2)cc1` (stereo not drawn) the “% Inhibition” value was 8%.
In the case of `CC[C@@]1(C)CCCN(C(=O)Cc2c(C)noc2Cl)C1`, the “% Inhibition” value was 87%.
In the case of `Cc1cnc(NC(=O)C2CCC(=O)N(C)C2c2cccc(F)c2)s1` (stereo not drawn), the “% Inhibition” value was 2%.
With `c1cn(C[C@@H]2CCCN2c2nc(C3CCCC3)ns2)nn1` the “% Inhibition” value was -8%.
With `CCOC(=O)c1nc(-c2cccnc2)cs1` the “% Inhibition” value was -8%.
For `Cn1c(C(=O)N2CC[C@H](N)C2)ccc1-c1cccc(Br)c1`, the “% Inhibition” value was 11%.
`Cc1cccc(NC(=O)c2cc(Cl)c[nH]2)n1` was tested, and the “% Inhibition” value was 6%.
For `COC(=O)C1C2CCC(C2)C1NC(=O)c1ccncc1` (stereo not drawn), the “% Inhibition” value was 2%.
With `CCn1cc(-c2nc(-c3ccccc3C)no2)c(=O)c2cc(F)c(N3CCOCC3)cc21` the “% Inhibition” value was 36%.
`OCCN(Cc1cccnc1)c1cc(-c2ccccc2)nc2ncnn12` was tested, and the “% Inhibition” value was 10%.
For `CCc1ccc(/C=C/c2c[nH]c3ccccc23)[n+](CC)c1`, the “% Inhibition” value was 88%.
`COc1nn(C)cc1C(=O)N1CCC[C@H](Oc2cccnn2)C1` was tested, and the “% Inhibition” value was 4%.
`CC[C@H](O)CN1CCC(Nc2ncnc3cc(Cl)ccc23)CC1` was tested, and the “% Inhibition” value was 75%.
In the case of `CCNC(=O)c1csc(COc2ccc3c(c2)[C@H](c2ccc(C)cc2)N(C(=O)CC(C)C)CC3)n1`, the “% Inhibition” value was 45%.
`CN(C)C(=O)NCCc1ncc(C(F)(F)F)cc1Cl` was tested, and the “% Inhibition” value was 11%.
With `CCCN1C(=O)c2ccccc2N2C(=O)CC[C@@]12C(=O)Nc1ccccc1` the “% Inhibition” value was 97%.
With `C[C@@H](CCc1ccccc1)NC(=O)c1cc2c(Cl)ccc3c2n1CCO3` the “% Inhibition” value was 12%.
For `COc1cccc(Cn2nccc2NC(=O)C2CCOCC2)c1OC`, the “% Inhibition” value was 1%.
With `CNC(=O)C(c1ccccc1)C(C(=O)NC)c1cccc2ccccc12` (stereo not drawn) the “% Inhibition” value was 1%.
In the case of `O=C(Nc1[nH]c(=O)ncc1F)c1cc(F)c(F)cc1Br`, the “% Inhibition” value was 86%.
For `CC(=O)N1C(C(=O)O)Cc2c([nH]c3ccccc23)C1c1ccc2c(c1)OCO2` (stereo not drawn), the “% Inhibition” value was 5%.
For `CCOC(=O)Cc1csc(NC(=O)Cc2c[nH]c3ccccc23)n1`, the “% Inhibition” value was -8%.
In the case of `Cc1cc(C(=O)N2CC3CCCC3C2C(N)=O)c2c(C)noc2n1` (stereo not drawn), the “% Inhibition” value was -5%.
For `COCCN(c1ccncc1)S(C)(=O)=O`, the “% Inhibition” value was 10%.
In the case of `O=C(CCCc1ccc2c(c1)CC(=O)N2)Nc1ccc2c(c1)C(=O)NC2`, the “% Inhibition” value was -14%.
In the case of `CN(C)CC(O)COc1ccc(S(=O)(=O)c2ccc(OCC(O)CN(C)C)c(Cl)c2)cc1Cl` (stereo not drawn), the “% Inhibition” value was 61%.
In the case of `Cc1cc(Br)ccc1CN(C)S(C)(=O)=O`, the “% Inhibition” value was -4%.
`CCn1c(=O)c(N2CCN(C(=O)Nc3ccccc3Cl)CC2)nc2ccccc21` was tested, and the “% Inhibition” value was 0%.
With `CC1=N[C@H](N2CCN(c3ccccc3)CC2)NC(O)=C1` the “% Inhibition” value was 1%.
For `Cc1ccc(-c2ccnn2C)cc1NC(=O)c1cscn1`, the “% Inhibition” value was 4%.
With `CCN(CC)c1ccc(NS(=O)(=O)c2cc(S(=O)(=O)c3ccc(Cl)c(S(=O)(=O)Nc4ccc(N(CC)CC)cc4)c3)ccc2Cl)cc1` the “% Inhibition” value was 5%.
`Cc1cc(F)ccc1-n1ccc(C(=O)N(C[C@H]2CCOC2)C2CC2)n1` was tested, and the “% Inhibition” value was -12%.
For `Cc1cccc(CNC(=O)c2n[nH]c3c2CN(C(=O)c2ccoc2)CC3)c1`, the “% Inhibition” value was -3%.
With `O=C(O)c1ccc(NS(=O)(=O)c2cc(Cl)ccc2OC[C@H]2CCCCO2)cc1` the “% Inhibition” value was 8%.
`COc1ccccc1CNC(=O)c1nnn(-c2ccc3noc(-c4ccc(Cl)cc4)c3c2)c1C` was tested, and the “% Inhibition” value was 3%.
In the case of `O=S(=O)(c1ccc2nncn2c1)N(Cc1cccc(Cl)c1)c1ccccc1`, the “% Inhibition” value was 9%.
With `C#CCN1C(=O)N[C@@](CC)(C(C)C)C1=O` the “% Inhibition” value was 12%.
For `CC(C)(C)N(Cc1ccc(F)cc1)C(=O)[C@H]1CCOC1`, the “% Inhibition” value was 15%.
With `O=C(Nc1cccc(C(F)(F)F)c1)C(Oc1ccccc1)Oc1ccccc1` the “% Inhibition” value was -19%.
With `COc1ccc(CNC(=O)Nc2ccc3c(c2)N(C(=O)c2ccccc2)CCC3)cc1OC` the “% Inhibition” value was 11%.
With `CC(C)(C)n1nc2nc(NCCN3CCCCC3)nc(-c3ccc(F)c(Cl)c3)c2c1N` the “% Inhibition” value was 76%.
In the case of `Cn1ccnc(N[C@@H](COc2ccccc2F)c2ccccc2)c1=O`, the “% Inhibition” value was 3%.
With `FC(F)(F)C1CN(c2nc(-c3ccccn3)nc3c2CCC3)C1` the “% Inhibition” value was 54%.
With `CC(=O)N1CCc2cc(-c3ccc(C(=O)NCCC(C)C)cc3)ccc21` the “% Inhibition” value was 11%.
In the case of `CCN(CC)CCCNC(=O)[C@H]1CCCN(c2nc3ccccc3n(Cc3ccccc3)c2=O)C1`, the “% Inhibition” value was 12%.
With `CC1=C2CC(C3(N)CC4(CC4)NC3=O)C(O)CC2(C)CCC1` (stereo not drawn) the “% Inhibition” value was 5%.
`O=C(NCCOc1ccccc1)c1ccc(C(=O)NCCOc2ccccc2)s1` was tested, and the “% Inhibition” value was 3%.
For `COc1cccc(COc2cccc(Cl)c2CNc2nnc(C(F)(F)F)o2)c1`, the “% Inhibition” value was 11%.
With `Cc1ccc(Nc2nc(C)c(C(=O)NCc3cccc(Br)c3)s2)c(C)c1` the “% Inhibition” value was -19%.
In the case of `CC1(C)Oc2ccc(NC(=O)C3CCCCC3)cc2NC1=O`, the “% Inhibition” value was 15%.
In the case of `Fc1cccc(F)c1-n1c(CN2CCCCC2)csc1=S`, the “% Inhibition” value was -5%.
`CCN(CCC1CCN(C(=O)Nc2ccc(OC3CCOCC3)c(C)c2)CC1)CC(C)C` was tested, and the “% Inhibition” value was -3%.
With `CCC[N+]1(CC#C[C@@](O)(c2ccccc2)C2(C)CCCC2)CCCCC1` the “% Inhibition” value was 42%.
In the case of `CC(C)c1ccc(Oc2cnn(-c3cccc(Cl)c3)c(=O)c2Nc2cccc(C(=O)NC3CC3)c2)cc1`, the “% Inhibition” value was 54%.
For `CCc1nnc2ccc(S(=O)(=O)Nc3ccc(F)c(F)c3)cn12`, the “% Inhibition” value was -8%.
`Cc1noc(NCc2cc(C)oc2C)n1` was tested, and the “% Inhibition” value was -17%.
`Cc1ccc(-n2nc(-c3ccccc3)c3cnc4cc(F)ccc4c32)cc1C` was tested, and the “% Inhibition” value was 6%.
